Results as given in patent publication US8618101B2, “N-((1R,2S,5R)-5-(tert-butylamino)-2-((S)-3-(7-tert-butylpyrazolo[1,5-a][1,3,5]triazin-4-ylamino)-2-oxopyrrolidin-1-yl)cyclohexyl)acetamide, a dual modulator of chemokine receptor activity, crystalline forms and processes” (Bristol-Myers Squibb Company, priority 2009, dated 2013).

System: Sodium Channel, Site 2
Conditions: 30,000 nM

## CC(=O)N[C@@H]1C[C@H](NC(C)(C)C)CC[C@@H]1N1CC[C@H](Nc2ncnc3cc(C(C)(C)C)nn23)C1=O [Example 1, N-((1R,2 S,5R)-5-(tert-Butylamino)-2-((S)-3-(7-tert-butylpyrazolo[1,5-a][1,3,5]triazin-4-ylamino)-2-oxopyrrolidin-1-yl)cyclohexyl)acetamide]
  Na+ channel binding (% inhibition): 46%, 30,000
